Results taken from article PMC12136788.
Some of the results follow.

B1: chr16:94664741:94664742:+_ENSMUSG00000040785_ENSMUST00000117648|mus_hu|mus_mus_mus_hu_False|88_108 (ssRNA)
RNA: GGGAGUUCUACAGUCCGACGAUCUGGCAUGGAUCUUGGUAGCUGAUACUCAGAAGAAAGGCUGGCCAAGGGUGUAUAUAUGCUGGUGUACUGGGGCAAACCUGGUAACACGUUUAUGUAUGCUGGCGGUGUCUGGGUGAUAUCCAACAGAGGAUUGAGCAUCA
B2: chr11:87793471:87793472:-_ENSMUSG00000020483_ENSMUST00000020775|mus_mus|mus_mus_mus_hu_False|28_48 (ssRNA)
RNA: GGGAGUUCUACAGUCCGACGAUCUGGACUUGAAAAUAAAAGAAUAAGCUGGAUCCCCCACCCCCCCACAUUGUCAACCCUACACGAGUUCUGAAUGGGCGACUCAUGAAUCAGCAGAGCUCAAACGGCAAUGACCACCCCACCCAACAGAGGAUUGAGCAUCA
B3: chrX:140365796:140365797:-_ENSMUSG00000031285_ENSMUST00000033642|mus_mus|mus_mus_mus_hu_False|58_108 (ssRNA)
RNA: GGGAGUUCUACAGUCCGACGAUCCUUCUCAUUACUUAGUGCCUGCAAGGUUCUGGUUCGGUAGAAGCUACAGUGGGCACUAUGAGUGGGGCUAGGCAACCCAUUCAUCCGGGAGCCUCGCAUGUUCCUGGAUGUCUUAUCUCUCAACAGAGGAUUGAGCAUCA
B4: chr2:198267338:198267339:-_ENSG00000115524_ENST00000335508|hu_mus|FALSE|FALSE (ssRNA)
RNA: GGGAGUUCUACAGUCCGACGAUCAAUGAUUUCAACCAAACUUCUGAGAUGUGGCAAGAUAGCACAGCCCAUGAGAAUGGCUAUCUGUUGUACAAUCUUAAUACCAGUGUGCCUCGCUUGCCAAGACUUCUUGCUUUUGCACACCAACAGAGGAUUGAGCAUCA
B5: chr1:33856384:33856385:-_ENSMUSG00000042197_ENSMUST00000044455|mus_mus|FALSE|FALSE (ssRNA)
RNA: GGGAGUUCUACAGUCCGACGAUCUAGUGCUGUCUUGAAAAUACUUAAGAGCUGUACAAUAAUGUCAAAAUUAUUAAAGUGCUAAAUUUUCUGUGCUUUUUUGUUGCCGUUUAAUAUAAAGCGGGGAUUGAUACAAAUAAAUUACAACAGAGGAUUGAGCAUCA
B6: chr7:23164667:23164668:+_ENSG00000122550_ENST00000322275|hu_hu|motif|central (ssRNA)
RNA: GGGAGUUCUACAGUCCGACGAUCCACAGGUUCAAUCUGAUAUUGGUUUGCUGCAUCCAGCAAAGACUGAACAUUGUUGCGGUUCACGGAAAUUCUAGCAGUAUAAGCAAAUUCCACCAGUUGUUCAAUAAUAUCAGGUUCAGCCAACAGAGGAUUGAGCAUCA
B7: chr11:64088491:64088492:+_ENSG00000126432_ENST00000265462|hu_hu|FALSE|FALSE (ssRNA)
RNA: GGGAGUUCUACAGUCCGACGAUCCACCAUGGAGAACCUCUUGAGACGUCGAUUCCCAAAGAUGGACACCAGCGAAUCAUCUAGUAAUAAGUCUGUCUCCUUCCCAAAGGCCCCAGUGGGAUCAGCCAGGAGCCGAACCUUGCCCAACAGAGGAUUGAGCAUCA
B8: chr4:140556289:140556290:+_ENSMUSG00000036622_ENSMUST00000037055|mus_mus|mus_mus_mus_hu_False|28_28 (ssRNA)
RNA: GGGAGUUCUACAGUCCGACGAUCGAUGGAGCUCACCAGGCCCCCUUUUGCCGUGCAGAACCCUGUGCGGGUCACCACUGCCAGGACGUGCGGUCCCACAUAGGCCCGGGCCUGCAGGAUGAGGGUCCCGCAGAAGAGUGUGUGCAACAGAGGAUUGAGCAUCA
B9: 56912192_56916801_1919_3pUTR_ENSMUSG00000055296_ENSMUST00000068792|mouse|control|control (ssRNA)
RNA: GGGAGUUCUACAGUCCGACGAUCGUUGAGAAGGGCAGUGCCACUGUAGAAGAGGAUGGUCAGCAGGGUGGUGACUGUGGUGAACAGCAGGCUCACGUUCCGGCUCAUAACAAUCCACAGAGACUCCAGGAUCGAAAGAAAAGUCAACAGAGGAUUGAGCAUCA
B10: chr2:25464519:25464520:-_ENSG00000119772_ENST00000380746|hu_hu|FALSE|FALSE (ssRNA)
RNA: GGGAGUUCUACAGUCCGACGAUCGUACAUGAUCUUCCCCUGGUGCCGCACCAUGCCCACCGUGAUGGAGUCCUCACACACCUCCGAGGCAAUGUAGCGGUCCACCUGAAUGCCCAAGUCCUUCAGCACCAGGAGCCCUGUAGCCAACAGAGGAUUGAGCAUCA
B11: chr7:141441981:141441982:+_ENSG00000106028_ENST00000265304|hu_mus|hu_hu_hu_mus_False|48_58 (ssRNA)
RNA: GGGAGUUCUACAGUCCGACGAUCCUCAUGUCUUACAAACUGACGAAAUACCUGUAACACAGGUCUUCGAAACAUGGCUUCUAUUUUCUUUUCUUACUAAUCUUUAGGCUUUUCCUAAAGGAAAGAAAGAAAAGAGAAAAAUGACAACAGAGGAUUGAGCAUCA
B12: chr5:128448638:128448639:+_ENSG00000066583_ENST00000173527|hu_mus|hu_hu_hu_mus_False|18_98 (ssRNA)
RNA: GGGAGUUCUACAGUCCGACGAUCGGCACUCGCCUUAAUUAGAUUCUGAAUUUCCUUGAACUUCGGGUGGUCUUUGUCAGCCACCAGCUGUAGGAGGACAGCCUCACUAGUGGUCACUAUGAUCCCGGUGCGGGCAAGACGCUCCAACAGAGGAUUGAGCAUCA
B13: chr4:17845017:17845018:+_ENSG00000109805_ENST00000514176|hu_mus|hu_hu_hu_mus_False|28_98 (ssRNA)
RNA: GGGAGUUCUACAGUCCGACGAUCGCUCUCUUAACUUGAUCUUCAUUUAAGGAACUCUGCAAGGUUAAGUUUACUUUUCUGUAGCGCAGCUGUUUUGGCUCGUCUGGUAGUCUCAUCCUUCAUUUCUGAUGGUGGUUCAUGAUCCAACAGAGGAUUGAGCAUCA
B14: chr3:134197472:134197473:-_ENSG00000129055_ENST00000354910|hu_hu|FALSE|FALSE (ssRNA)
RNA: GGGAGUUCUACAGUCCGACGAUCAGGAGCCAAGCGUCAGUUUCCAAUGGGGGGAACAUUCUCAUGGAGGUACUGUAAGGCUAAGUCUGUCCACUUCAUUUCUUGUUCUUUGACAGAUUCUGUGGUGCCACCAUUGUCUUGUUCCAACAGAGGAUUGAGCAUCA
B15: chr11:102151369:102151370:-_ENSMUSG00000059995_ENSMUST00000137387|mus_hu|motif|central (ssRNA)
RNA: GGGAGUUCUACAGUCCGACGAUCCGGCUAGAGGCCUGCUGAGAUCCUCCUCUCCCUCUGGCCUCCUCUCGGAGGGAGACGGCGGAGGGCCAAGAAUAGAGAAGCCCAGGCCCCGGGAUUUAUUCUAACUCCUGCCAAAAUCUGCAACAGAGGAUUGAGCAUCA
B16: chr8:74858975:74858976:-_ENSG00000154582_ENST00000284811|hu_mus|hu_hu_hu_mus_True|1_38 (ssRNA)
RNA: GGGAGUUCUACAGUCCGACGAUCGACCUUGUAGGUAAAAUACAUGCACACUUUUGAUAGCACAUGUGAGGGGAUCUCUCUAAAAUUGACCUCGUUGGUUUCGUUCUCAGCAAACUGACCUGGACCACUCAACAUAGCUUUUAUCAACAGAGGAUUGAGCAUCA
B17: chr18:38477064:38477065:+_ENSMUSG00000060450_ENSMUST00000072376|mus_mus|FALSE|FALSE (ssRNA)
RNA: GGGAGUUCUACAGUCCGACGAUCGCUCUUCACAGGUUUAGAGAGCAUUCAUGAGGAAUACACUGGGCUUUUUCCUACUCUAGUGAGGAAAUAAAGACACACACUGCUGGGAUCAACAUUAAAACUGUCCUUGCCCACAAGAGGCAACAGAGGAUUGAGCAUCA
B18: chr11:9308113:9308114:-_ENSG00000166471_ENST00000528080|hu_hu|FALSE|FALSE (ssRNA)
RNA: GGGAGUUCUACAGUCCGACGAUCAUUAGGCAGAAAUGGUGUUAUUCUCAAAAAUAUAAUGUAGUUAAUGAGAUGUUCUCUAUGACGUUCAACCUGCUGUGACCAUUUUACUGCUUUCUCUGUUAGGUAUUUGUAUACAACUGGCAACAGAGGAUUGAGCAUCA
B19: 79828338_79828458_2081_3pUTR_ENSMUSG00000043881_ENSMUST00000061222|mouse|control|control (ssRNA)
RNA: GGGAGUUCUACAGUCCGACGAUCGUGAUGAAACUCUGACCAGGUUCAAGACAGGAAGGAUAAACUCGAUCACACAGGCAAAUAAAGCCAGAGUCAAACUGCAAAAGGCCUAACAUGGUGCCUAUAUUAAUCCAUUGGUCUUCCCAACAGAGGAUUGAGCAUCA
B20: chr2:217012863:217012864:+_ENSG00000079246_ENST00000392132|hu_mus|FALSE|FALSE (ssRNA)
RNA: GGGAGUUCUACAGUCCGACGAUCGAGUGGACUCUCACAUUUUGCUUUCAUCUCAGUGGGGGGAUCCAGCAUAUUCAAAAUGUGCUGCUGAAUCGGGGGCAGCCGCUCCUGGAGAUGUAAGGCUCUAUGCAGCAGACACUGGUACAACAGAGGAUUGAGCAUCA
B21: chr12:125396312:125396313:-_ENSG00000150991_ENST00000546120|hu_hu|FALSE|FALSE (ssRNA)
RNA: GGGAGUUCUACAGUCCGACGAUCAACUUAGACACCCCCCCUCAAGCGCAGGACCAAGUGCAGAGUGGACUCUUUCUGGAUGUUGUAGUCAGACAGGGUGCGUCCAUCUUCCAGCUGUUUCCCAGCAAAGAUCAACCUCUGCUGCAACAGAGGAUUGAGCAUCA
B22: chr19:37619525:37619526:+_ENSG00000197050_ENST00000337995|hu_hu|FALSE|FALSE (ssRNA)
RNA: GGGAGUUCUACAGUCCGACGAUCUUCCUUACAUUGAUAUGGUUUCUCACCAGUAUGAAUUCUCUGAUGUUGUAUAAGUAGUAAGCCACGCGCAAAGGCCUUUCCACAUUCAUUACACACAUAGGGUUUCUCACCAGUGUGAAGCAACAGAGGAUUGAGCAUCA

biological target: T1, UNK ZnF1-3 (human, UniProt Q9C0B0 31-174); experiment: nsRBNS (natural sequence RNA bind-n-seq); RBNS binding buffer (assumed for nsRBNS): 25 mM Tris pH 7.5, 150 mM KCl, 3 mM MgCl2, 0.01% Triton X-100, 500 ug/ml BSA, 20 U/ml SUPERase-In, 4 C; UNK is unkempt and MSI1 is Musashi-1; names of the RNAs are library labels; protein concentration not given here; high values mean tight binding
T1 sequence: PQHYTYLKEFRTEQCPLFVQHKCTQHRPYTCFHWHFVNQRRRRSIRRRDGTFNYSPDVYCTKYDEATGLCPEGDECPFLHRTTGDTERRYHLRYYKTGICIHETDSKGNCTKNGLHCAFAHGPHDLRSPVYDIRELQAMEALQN

Binder | binding signal
B1 | 1.14 enrichment R
B2 | 1.79 enrichment R
B3 | 0.461 enrichment R
B4 | 0.444 enrichment R
B5 | 2.15 enrichment R
B6 | 1.48 enrichment R
B7 | 1.43 enrichment R
B8 | 0.73 enrichment R
B9 | 1.8 enrichment R
B10 | 1.09 enrichment R
B11 | 0.359 enrichment R
B12 | 0.458 enrichment R
B13 | 0.391 enrichment R
B14 | 0.544 enrichment R
B15 | 1.32 enrichment R
B16 | 0.828 enrichment R
B17 | 0.949 enrichment R
B18 | 1.86 enrichment R
B19 | 1.27 enrichment R
B20 | 1.29 enrichment R
B21 | 0.881 enrichment R
B22 | 0.772 enrichment R
